Source: PubChem BioAssay AID330 (DTP/NCI, 2004)
Toxic doses and inconclusive results are not listed. Not every entry of the source has a single result; some have several. Only these are listed. The source may hold further records. The records of an entry differ for a reason that is not stated; they may come from other doses, times, organisms or constructs than stated.

Tested on: P388 leukemia ip, CD2F1 mice, survival T/C
Assay: NCI In Vivo Anticancer Drug Screen. Data for tumor model P388 Leukemia (intraperitoneal) in CD2F1 (CDF1) mice
Settings: endpoint: median survival time; dose: 5.0 mg/kg/injection; schedule: Q01DX001 (ip); vehicle: saline; higher = longer survival

COc1cccc2c1C(=O)c1c(O)c3c(c(O)c1C2=O)C[C@@](O)(C(=O)CO)C[C@@H]3OC1CC(N)C(O)C(C)O1 (stereo partly specified)
T/C: 113 % of control and 150 % of control
